“And” between values parts separate entries of the source, which are not always exact repeats. Equal entries are not always repeated. Whole data set: some 5,400 compounds, median “IFI” near 2, cut for the highest 2% near 22. This is one part of the list.

The assay is described as follows: NOVARTIS: Inhibition Frequency Index (IFI) - the number of HTS assays where a compound showed > 50% inhibition/induction, expressed as a percentage of the number of assays in which the compound was tested. It counts as functional.
In turn, `O=[N+]([O-])c1cccc(C=NNc2nc(NN=Cc3cccc([N+](=O)[O-])c3)nc(Nc3cccc4ccccc34)n2)c1` showed an IFI of 2.3%.
Take `CCCCNCCN1CCN(c2cc(OC)cc(OC)c2)C[C@@H]1Cc1ccccc1`: the IFI was 2.44%.
With `Cc1cccc(-n2c(-c3ccccc3)nc3ccc(-c4ccc5nc(-c6ccccc6)n(-c6cccc(C)c6)c(=O)c5c4)cc3c2=O)c1`, the IFI stood at 0%.
Molecule `O=C(Cc1c(F)cccc1Cl)Nc1cc(C(=O)N2CCN(Cc3ccccc3)CC2)ccc1N1CC2CC(C1)c1cccc(=O)n1C2` (stereo not given) came in with an IFI of 1.21%.
The value for `COc1ccccc1Cc1nc2ccccc2nc1SCC(=O)Nc1cccc(C(F)(F)F)c1` was 0%; that for `O=C(NCC1(c2ccccc2)CCCC1)C(=O)Nc1nncs1` was 0%.
As for `COc1ccc(C(=O)C(C)[n+]2cccc3ccc4cccnc4c32)cc1` (stereo not given), the figure is 7.14%; as for `C=CCNC(=O)c1cc(OCc2ccccc2)c(OCc2ccccc2)c(OCc2ccccc2)c1`, 0%; as for `COCCN1C(=O)c2ccccc2C(C(=O)Nc2cccc(C(F)(F)F)c2)C1c1cccs1` (stereo not given), 9.09%.
The value for `CSc1nnc(CCNC(=O)c2c(-c3ccccc3)noc2C)n1-c1ccc(F)cc1` was 1.04%.
Turning to `O=c1c(=Cc2ccc(-c3ccc([N+](=O)[O-])cc3Cl)o2)sc2nc3ccccc3n12`, the IFI amounted to 0%.
With `O=c1sc(=NCC(O)c2ccc(Cl)c(Cl)c2)[nH]c2ccccc12` (stereo not given), the IFI amounted to 7.32%.
The value for `Nc1cc2c(cc1Br)CCCC2` was 7.14%.
As for `O=C(NCCc1ccccc1)c1cnc(NCCCN2CCCC2)nc1NCC1CCCCC1`, the figure is 0.952%; as for `CCC(C)N(CCC(=O)N1CCN(Cc2ccccc2)CC1)C(=O)Nc1cccc(Cl)c1Cl` (stereo not given), 1.89%.
The value for `COc1ccc(C(=O)C[n+]2ccc(N)c(C)c2C)cc1` was 0%.
`O=C(NC1CC1)c1ccc(N2C(=O)C3C4c5ccccc5C(c5ccccc54)C3C2=O)cc1` (stereo not given): the IFI was determined as 0%.
Molecule `O=C(c1ccc([N+](=O)[O-])cc1)N1CCC(c2nc(O)c3nnn(Cc4c(F)cccc4Cl)c3n2)CC1` had an IFI of 7.89%.
`COc1ccc(-c2nc(SCCCCC(=O)N3CCN(C(c4ccccc4)c4ccccc4)CC3)[nH]c2-c2ccc(OC)cc2)cc1` returned an IFI of 0.926%.
As for `C=CCc1cc(C=c2sc3n(c2=O)C(c2ccccc2)C(C(=O)OCC)=C(C)N=3)cc(OC)c1O` (stereo not given), the figure is 1.24%; as for `O=[N+]([O-])c1ccc(C2OC3C(c4ccc(Cl)cc4)=Nc4ccccc4N3C2c2ccc([N+](=O)[O-])cc2)cc1` (stereo not given), 0%; as for `CCc1ccc(NC(=O)C2c3ccccc3C(=O)N(CC(C)C)C2c2cccs2)cc1` (stereo not given), 6.06%.
On to `O=C1CC(c2ccc([N+](=O)[O-])cc2)C2=C(CC(c3ccc(F)cc3)CC2=O)N1` (stereo not given), for which the IFI was 0%.
The value for `COc1ccc(-n2nc(C(=O)NCC(=O)Nc3ccc(F)cc3)c3ccccc3c2=O)cc1Cl` was 3.49%.
Molecule `Cc1ccccc1C(=O)N(CC(=O)Nc1cc(C(C)(C)C)nn1-c1ccccc1Cl)C(C)C` registered an IFI of 2.78%.
`COc1ccc(C(OCC(=O)N2CCN(Cc3ccccc3)CC2)c2ccc(F)cc2)cn1` (stereo not given): the IFI worked out at 2.88%.
As for `COc1ccc2c(c1)C=C([C@@H]1C[C@H]3CN(c4ccccc4)C(=O)[C@]34CCCN14)CO2`, the figure is 0%; as for `Cc1ccn2c(NC(C)(C)CC(C)(C)C)c(-c3ccccc3OC(=O)CC(C)C)nc2c1`, 4.67%.
`COc1cccc(OCCN2CCN(c3ncnc4c3cnn4-c3ccccc3)CC2)c1`: the IFI turned out to be 9.09%.
In the case of `O=C(C[n+]1ccccc1)NN=Cc1ccc(Cl)c(Cl)c1`, the IFI is 0%.
The value for `COC(=O)CNC(c1ccccc1)c1cc(Br)ccc1NC(=O)C(Cc1ccccc1)NC(=O)OCc1ccccc1` (stereo not given) was 0%; that for `CCCN1CCC(N2C[C@@H](NCCC3=C(C)CCCC3(C)C)C[C@H]2C(=O)NCC)CC1` was 3%; that for `CCOC(=O)c1cccc(NC(=O)CCn2nc(C)c3c(C)n(-c4ccccc4)nc3c2=O)c1` was 0%.
The value for `COC(=O)c1ccccc1NC(=O)CN(C)c1nc(-c2ccc(OC)cc2)no1` was 0%.
As for `CC(=O)N(C1=C(N2CCCCC2)C(=O)c2ccccc2C1=O)c1cccc(F)c1`, the figure is 0%.
`CC(C)(C[N+](C)(C)C)C1OC2CCCCC2C2C=CCCC21` (stereo not given): the IFI was determined as 6.9%.
The molecule `COC(=O)c1[nH]c2ccc(Cl)cc2c1NC(=O)C(C)N1CCN(C2CCCCC2)CC1` (stereo not given) yielded an IFI of 10.2%.
As for `COc1cc(NC(=O)/C=C/c2ccccc2Cl)cc(OC)c1OC`, the figure is 1.56%; as for `CCCCCCCCCCCC(=O)Oc1ccccc1-c1nc2ccccn2c1NC(C)(C)CC(C)(C)C`, 2.83%.
As for `COC(=O)C1CCCCN1S(=O)(=O)c1ccc(C)cc1` (stereo not given), the figure is 0%; as for `N=c1n(CCN2CCCCC2)c2ccccc2n1CC(O)COc1ccc(Cl)cc1` (stereo not given), 9.43%.
Take `CCCCN(CC)CCNC(=O)c1cc2c(-c3ccc(Cl)cc3)nn(C)c2s1`: the IFI was 0%.
The value for `Clc1ccc2c(c1)nc(N1CCNCC1)n2Cc1ccccc1` was 0.8%.
On to `CCN1CCN(c2cc(C)c3cc(NC(=O)c4ccc(OC)c([N+](=O)[O-])c4)ccc3n2)CC1`, for which the IFI came to 11.5%.
As for `COc1ccc(Nc2nc(Nc3ccc(OC)cc3)c3[nH]ccc3n2)cc1`, the figure is 0%; as for `CCNC(=O)C1CCN(c2cccc3c2C(=O)N(C2CCCCCCC2)C3=O)CC1`, 3.45%.
As for `CC(=O)Nc1cccc(-c2cncc(-c3ccc(C(=O)O)cc3)n2)c1`, the figure is 0%; as for `Cc1cc(Nc2ccc(C)c(C)c2)n2cnnc2n1`, 0%.
As to `CCCCCCCC[n+]1c(C)n(C)c2cc(Cl)c(Cl)cc21`, the IFI was found to be 0%.
In the case of `CC(=O)c1ccc(-n2cc(C(=O)C(C)Oc3ccc(Cl)cc3Cl)nn2)cc1` (stereo not given), the IFI turned out to be 1.3%.
As for `CCC(c1nc2ccccc2c(=O)n1CC)N1CCN(C(=O)Nc2ccccc2C(F)(F)F)CC1` (stereo not given), the figure is 2.08%.
As for `CCOC(=O)C1=C(C)NC2=C(C(=O)C(C(=O)OCC)C(c3ccc(OC)cc3)C2)C1c1ccc(OC)c(OC)c1` (stereo not given), the figure is 4.65%.
In turn, `CCc1c(C#N)c(N)nc(SCC(=O)c2ccc(C)cc2)c1C#N` registered an IFI of 3.49%.
The value for `Cc1ccc(S(=O)(=O)N2CCN(C(=O)c3ccccc3)C2c2ccccc2)cc1` (stereo not given) was 0%.
Turning to `Cc1cccc(-n2nc(C(C)(C)C)cc2NC(=O)CN(C(=O)/C=C/c2ccccc2)C(C)C)c1C`, the IFI is 0.926%.
For `CCCOC(=O)C1=C(C)NC2=C(C(=O)CC(c3ccc(OC)c(OC)c3)C2)C1c1ccccc1Cl` (stereo not given), the IFI worked out at 2.35%.
`CC(c1nc2ccc(Cl)cc2c(=O)n1C)N1CCN(C(=O)C(C)(C)C)CC1` (stereo not given) showed an IFI of 0%.
With `O=C(CCl)Nc1ccc(OC(F)F)cc1`, the IFI stood at 0%.
Take `NCCCNC(=O)COC(c1ccccc1)c1cccnc1Cl` (stereo not given): the IFI came to 1.94%.
As for `CCCCN(C)C(=O)CSc1nc(NCc2ccccc2)c2ccccc2n1`, the figure is 0%.
The value for `CCN1CCN(Cc2c(O)ccc3c(=O)c(Oc4ccccc4Br)c(C(F)(F)F)oc23)CC1` was 1.16%.
For `COCCN(CC(=O)NCc1ccc(OC2CCN(CC(c3ccccc3)c3ccccc3)CC2)cc1)S(=O)(=O)c1ccccc1`, the IFI is 1.41%.
The value for `COc1ccccc1C(=O)NC1CCN(CC(O)CN(Cc2ccccc2)S(=O)(=O)c2ccccc2)C1` (stereo not given) was 1.94%.
The molecule `COc1ccc(NC(=O)Cn2c(C)c(C=O)c3ccccc32)cc1` had an IFI of 7.69%.
As for `CC(C)(C)CC(C)(C)Nc1c(-c2ccccc2OC(=O)/C=C/c2ccccc2)nc2ccccn12`, the figure is 8.33%; as for `O=C1c2cccc3c(C4=NN(c5ccccc5)C(c5ccc(Cl)cc5)C4)ccc(c23)C(=O)N1c1ccccc1` (stereo not given), 0%; as for `CCN(CC)CCNc1nc(/C=C/c2ccc(Cl)cc2)nc2cc3ccccc3cc12`, 8.77%.
The value for `Cc1noc(C)c1C(=O)N1CCC(O)(c2ccccn2)CC1` was 0%; that for `Cc1c2ccccc2c(-c2ccccc2)c2ccccc12` was 3.01%; that for `C=CC[N+]1(CC#Cc2cccc3ccccc23)CCCCC1` was 0%.
As for `CN(C)CCCNC1=NC=NC2C=C(Cl)C=CC12` (stereo not given), the figure is 1.24%; as for `CCN(CC)CCN(Cc1cc2c(C)cc(C)cc2[nH]c1=O)C(=S)NCCCN(C)C`, 2.08%.
For the molecule `COc1ccc(/C=C2\SC(=S)N(CC(=O)NNC(=O)c3ccncc3)C2=O)cc1`, the IFI was found to be 1.16%.
As for `Cc1cc2c(cc1C)-c1c(ssc1=Nc1cccc(C)c1C)C(C)(C)N2`, the IFI was determined as 0%.
The value for `C=CCOC(=O)C1=C(C)N2CCSC2=C(C#N)C1c1ccco1` (stereo not given) was 1.06%; that for `CCCOC(=O)c1c(NC(=O)c2c(I)cnn2C)sc2c1CCCCC2` was 0%; that for `CN(C)CC(C)(C)CNCc1cc(-c2ccnc3cc(Cl)ccc23)ccc1O` was 4.42%.
Regarding `Cc1ccccc1-c1cccc(CN2CCCCC2CCn2cc(C(=O)NC3CC3)nn2)c1` (stereo not given), the IFI was found to be 1.94%.
As for `CCCCN(CC)CCNC(=O)C1c2ccccc2C(=O)N(Cc2ccc(F)cc2)C1c1ccc(OC)cc1` (stereo not given), the IFI was 0%.
As for `OCCN(CCO)CC(O)Cn1c2ccc(Br)cc2c2cc(Br)ccc21` (stereo not given), the figure is 2.08%; as for `Cc1ccc(OCCCCCCNCCO)c(C)c1`, 0%.
As for GNF-Pf-2945, CHEMBL581676, the figure is 1.82%; as for `CCOC(=O)C1=C(C)N=c2sc(=Cc3cc(Cl)ccc3O)c(=O)n2C1c1ccc(OC)c(OC)c1` (stereo not given), 3.53% and 3.57%; as for `COc1ccc(CCNc2ncnc3c2[nH]c2ccccc23)cc1`, 13.7%.
Molecule `CCC(c1nc2ccccc2c(=O)n1-c1ccccc1OC)N(CCc1ccccc1)C(=O)CCc1ccccc1` (stereo not given) had an IFI of 2.25%.
The value for `CCc1nc2nc(C)cc(Nc3ccc(I)cc3)n2n1` was 0%.
The molecule `CC1=[N+](CC(=O)c2ccc(C)cc2)CCn2c(C)ccc21` came in with an IFI of 0%.
In turn, `CN(C)c1ccc(N/C=C/C(=O)C(C)(C)C)cc1` returned an IFI of 4.54%.
The value for `Cc1ccc(-n2c(-c3ccccc3)cc(C=NNC(=O)c3cccc(-n4c(C)ccc4C)c3)c2-c2ccccc2)cc1` was 0%.
As for `CCC(=O)c1c(C)n(-c2ccc(Br)cc2)c2ccc(O)cc12`, the figure is 0%.
On to `Cc1ccccc1Cn1c(=N)n(CC(O)c2ccc(Cl)c(Cl)c2)c2ccccc21` (stereo not given), for which the IFI was found to be 3.23%.
Regarding `O=C(Cn1c(=O)oc2cc(S(=O)(=O)NCc3ccccc3)ccc21)NC1CCCCC1`, the IFI was determined as 0%.
As for `N=c1c2c(n(Cc3ccccc3Cl)c3c1CCC3)CCCC2`, the IFI was determined as 6.25%.
The molecule `COc1ccc(C2CC(=O)C3=C(C2)NC(C)=C(C(=O)OC2CCCC2)C3c2ccccc2)cc1` (stereo not given) showed an IFI of 5.81%.
The molecule `O=C1C2C(C(=O)N1c1ccc(F)cc1)C1(c3ccccc3)C(=O)C2(c2ccccc2)C(c2ccccc2)=C1c1ccccc1` (stereo not given) came in with an IFI of 0%.

For the origin of these results see ChEMBL document CHEMBL1156829.
